Assay results: PMC10510377 (Journal of Medicinal Chemistry, 2023)
“And” between values parts separate entries of the source, which are not always exact repeats. Equal values may be shown once.

Experiments:
[1] = set-up: method as in ref 16, 18 = [16]; Food and Drug Administration (FDA) . Highlights of Prescribing Information—Alunbrig . 2017 , https://www.accessdata.fda.gov/drugsatfda_docs/label/2017/208772lbl.pdf (accessed April 21, 2021). || [18]; European Medicines Agency . Procedure No. EMEA/H/C/004248/0000—Assessment Report—Alunbrig . https://www.ema.europa.eu/en/documents/assessment-report/alunbrig-epar-public-assessment-report_en.pdf (acce); settings: cited from earlier work
[2] = set-up: method as in ref 16, 18 = [16]; Food and Drug Administration (FDA) . Highlights of Prescribing Information—Alunbrig . 2017 , https://www.accessdata.fda.gov/drugsatfda_docs/label/2017/208772lbl.pdf (accessed April 21, 2021). || [18]; European Medicines Agency . Procedure No. EMEA/H/C/004248/0000—Assessment Report—Alunbrig . https://www.ema.europa.eu/en/documents/assessment-report/alunbrig-epar-public-assessment-report_en.pdf (acce); settings: orally administrated [^14C]brigatinib; cited from earlier work
[3] = system: EML4–ALK fusion-A549; set-up: method as in ref 19 = [19]; Enuameh M. S.; Volpe L.-A.; Jackson M.; Foulke J.; Chen L.; Shapiro B. A.; Tian F. Developing isogenic cell models with CRISPR: an EML4-ALK fusion NSCLC cell line . https://www.nature.com/articl; settings: read-out: IC50, cell survival; cited from earlier work
[4] = system: HCC827 xenografts (EGFR Del19 mutated); assay: Ex vivo biodistribution, tumor uptake in HCC827 xenografts; settings: HCC827 xenograft, 60 min p.i.
[5] = system: H2228 xenografts (endogenous EML4–ALK); settings: H2228 xenograft, ex vivo biodistribution, 60 min p.i.
[6] = system: A549 xenografts (wild-type EGFR/ALK); settings: A549 xenograft, ex vivo biodistribution, 60 min p.i.
[7] = A549 tumor-bearing mice, 5, 30, 60 min p.i.
[8] = In vivo metabolism of the tracer in blood plasma (SPE and radio-HPLC); settings: 60 min p.i., female nu/nu mice, i.v. tracer
Protocol: At 60 min p.i., 87 ± 8% of the circulating radioactivity in blood plasma was intact tracer, while 9 ± 1% was polar metabolites and 4 ± 7% was apolar metabolites (Figure 1).
Part of the blood (0.6–1 mL) collected via heart puncture in the biodistribution evaluation was used for the metabolic stability study. Centrifugation (4000 rpm for 5 min) separated the plasma from the blood cells. The sample was diluted with 0.15 M hydrochloric acid (2 mL) before loading onto an activated tC2 solid-phase extraction (SPE) cartridge. The filtrate and any remaining polar metabolites washed off the cartridge with water were collected and defined as the “polar” fraction. The apolar fraction was collected by eluting the cartridge with a mixture of methanol and water. An SPE extraction efficiency of 94 ± 2% was achieved. The collected fractions were counted for radioactivity in a Wizard gammacounter 2480 (Wallac/PerkinElmer, Waltham, MA, USA). The percentage of intact tracer was determined by semi-preparative radio-HPLC on a Dionex Ultimate 3000 system using a Phenomenex Gemini (250 × 10 mm, 5 μm) HPLC column and a gradient of 0 to 40% acetonitrile in water, both containing trifluoroacetic acid (0.1%), in 12 min at 3 mL·min^–1. Fractions of 30 s were collected and counted for radioactivity in a Wizard gammacounter 1470 (Wallac/PerkinElmer, Waltham, MA, USA).

[9] = Stability of the tracer in HPLC eluent and in the formulation; assay type: physicochemical
Text: N-Desmethyl brigatinib was radiolabeled using [^11C]methyl iodide without the addition of a base. By adding a protic solvent, the formation of an unknown byproduct could be suppressed while product formation was promoted. The side product-to-product ratio in dimethyl sulfoxide could almost completely be suppressed with the addition of ethanol, as is exemplified in the Supporting Information (Figure S1). […] The product was purified by semi-preparative HPLC, followed by reformulation in saline with 10% ethanol.

[10] = system: HCC827 (del19 mutated EGFR); set-up: method as in ref 21 = [21]; Center for Drug Evaluation and Research . Multi-Discipline Review; Application Number: 208772Orig1s000, 2016 .; settings: cited from earlier work
[11] = system: CYP2C8 and CYP3A4; settings: reported; cited from earlier work
[12] = system: ALK phosphorylation in H2228 cells; settings: read-out: cellular ALK phosphorylation IC50; cited from earlier work
[13] = system: H2228; set-up: method as in PMID 27780853; settings: cited from earlier work

COc1cc(N2CCC(N3CCNCC3)CC2)ccc1Nc1ncc(Cl)c(Nc2ccccc2P(C)(C)=O)n1 [N-Desmethyl brigatinib, N-Desmethyl Brigatinib]
potency relative to brigatinib (fold less potent) [1]: approximately 3 fold | share of the circulating activity [2]: 3.5%

Cc1cc(Nc2ncc(Cl)c(Nc3ccccc3S(=O)(=O)C(C)C)n2)c(OC(C)C)cc1C1CCNCC1 [ceritinib]
IC50 [3]: 6000 nM

COc1cc(N2CCC(N3CCN([11CH3])CC3)CC2)ccc1Nc1ncc(Cl)c(Nc2ccccc2P(C)(C)=O)n1
tumor uptake [4]: 1.66 ± 0.17 % ID/g | tumor uptake [5]: 2.65 ± 0.79 %ID/g | tumor uptake [6]: 1.40 ± 0.22 % ID/g | radioactive concentration in the brain [7]: very low | intact tracer, share of circulating radioactivity in blood plasma [8]: 87 ± 8% and 87% | stability of pure HPLC product fraction in eluent ([9]; acidic solutions (eluent with trifluoroacetic acid), over time): degradation of the product in acidic solutions over time | stability of formulated product ([9]; saline with 10% ethanol): remained stable

COc1cc(N2CCC(N3CCN(C)CC3)CC2)ccc1Nc1ncc(Cl)c(Nc2ccccc2P(C)(C)=O)n1 [brigatinib, Brigatinib]
GI50 [10]: 163 nM | metabolizing enzymes [11]: primarily metabolized by CYP2C8 and CYP3A4 | IC50 [12]: 4.5 ± 2.2 nM | GI50 [13]: 10.1 nM | share of the circulating activity [2]: 92%
